PubChem BioAssay AID298 (DTP/NCI, 2004)
Several values for one entry are separate records, joined by “and”; a condition that tells them apart may be missing. Identical values can stand only once. Records with an inconclusive call do not appear.

Test system: MX-1 breast xenograft, intrarenal, nude mice, tumor weight
Test: NCI In Vivo Anticancer Drug Screen. Data for tumor model Human Mammary Carcinoma MX-1 Xenograft (intrarenal inoculation) in NU/NU BALB/C (nude) mice
Conditions: endpoint: mean tumor weight change, schedule: Q04DX003 (ip), vehicle: Klucel (hydroxypropylcellulose) (HPC), higher = larger tumour
Experimental: The antitumor activity of compounds was measured in mice bearing transplantable tumors. Survival or tumor size were measured and the results are expressed as the measurement made in the treated group (T) divided by the measurement made in the vehicle treated control group (C). The tumor model used in this assay is Human Mammary Carcinoma MX-1 Xenograft (intrarenal inoculation) in NU/NU BALB/C (nude) mice

With `COc1c(O)cc2c(c1OC)-c1ccc(SC)c(=O)cc1C(NC(C)=O)CC2` (centres undefined) the T/C (dose: 1.25 mg/kg/injection) was 61 % of control, the T/C (dose: 1.56 mg/kg/injection) was 41 % of control and the T/C (dose: 2.5 mg/kg/injection) was 31 % of control and 46 % of control. The T/C (dose: 3.12 mg/kg/injection) was 33 % of control, the T/C (dose: 6.25 mg/kg/injection) was 7 % of control and 20 % of control and the T/C (dose: 10.0 mg/kg/injection) was 16 % of control and 24 % of control (2×). The T/C (dose: 12.5 mg/kg/injection) was 7 % of control.
In the case of `COc1cc2c(c(OC)c1OC)-c1ccc(SC)c(=O)cc1[C@@H](NC(C)=O)CC2`, the T/C (dose: 0.5 mg/kg/injection) is reported as 52 % of control, the T/C (dose: 0.72 mg/kg/injection) is reported as 57 % of control and the T/C (dose: 1.0 mg/kg/injection) is reported as 28 % of control. The T/C (dose: 1.2 mg/kg/injection) was 47 % of control and 71 % of control and the T/C (dose: 2.0 mg/kg/injection) was 19 % of control and 21 % of control and 27 % of control.
`COc1cc2c(c(OC)c1OC)-c1ccc(OC)c(=O)cc1[C@@H](N)CC2` was tested, and the T/C (dose: 30.0 mg/kg/injection) was 27 % of control.
In the case of `CCOC(=O)NC1CCc2cc(OC)c(OC)c(OC)c2-c2ccc(OC)c(=O)cc21` (centres undefined), the T/C (dose: 3.75 mg/kg/injection) is reported as 56 % of control.
